# Measurements as given in PubChem BioAssay (Tox21).
# Values joined by “and” are separate entries in the source; they are usually repeats but may differ in a detail not shown here. Identical values can stand only once. The inconclusive results got no clear call from the source; some entries with a clear call stand among them for comparison. Where the call is inconclusive, the potency comes from a doubtful curve fit. Active and inactive are the calls of the source. Unless noted, calls follow the shape of the dose curve; as a rule, active = well fitted curve in the direction sought with a large enough effect in the repeat runs; inconclusive = weak or mixed curves; inactive = no such curve, though single readings can be large; an effect the other way counts as inactive or inconclusive.
# Columns and labels:
# [1] = molecular target: Progesterone receptor (Homo sapiens) (UniProt P06401); assay: qHTS assay to identify small molecule antagonists of the progesterone receptor (PR) signaling pathway (AID 1346795; active = well fitted inhibition curve with a large enough effect in the signal ratio in the repeat runs, not every such curve was filed as active; inconclusive = weak or mixed curves; the % refers to the signal ratio; as to activity change, negative = inhibition: % is scaled to controls: 0 for no effect and ±100 for the full control effect); conditions: PR-UAS-bla HEK293T, beta-lactamase FRET ratio, 16 h
# Summary of the method: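 Stimulus R5020 at 1 nM final; cells HEK293T PR-UAS-bla; medium with 2% charcoal-stripped FBS; compound exposure 16 hr at 37C, 5% CO2; detection by FRET beta-lactamase substrate, 2 hr, room temperature.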
# [2] = qHTS assay to identify small molecule antagonists of the progesterone receptor (PR) signaling pathway - cell viability counter screen (AID 1346798); also: nearly all actives have a fitted effect of over 50% in size
# Summary of the method: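 In the same plates used for the beta-lactamase readout, cell viability of compound- and R5020-treated PR-UAS-bla HEK293T cells (16 hr, 37C) was assessed by CellTiter-Glo luminescence.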
# [3] = qHTS assay to identify small molecule agonists of the progesterone receptor (PR) signaling pathway - cell viability counter screen (AID 1346799; calls by dose curve; also: nearly all actives have a fitted effect of over 45% in size)
# Summary of the method: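 Multiplexed viability read: CellTiter-Glo luminescence, 30 min RT, following LiveBLAzer FRET measurement on PR-UAS-bla HEK293T cells exposed to compounds 16 hr.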
# [4] = qHTS assay to identify small molecule antagonists of the TGF-beta/Smad signaling pathway (AID 1346924; active = well fitted inhibition curve with a large enough effect in the signal ratio in the repeat runs, not every such curve was filed as active; inconclusive = weak or mixed curves; the % refers to the signal ratio); conditions: SBE-bla HEK293T, TGF-beta/Smad reporter, beta-lactamase ratio; activity, negative = inhibition: at 76.8 µM (top of the series) unless noted
# Summary of the method: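 SBE-bla HEK 293T cells were plated overnight, then received compound in DMSO plus TGF-beta1 (added as a 0.25 ng/mL solution) and were incubated 5 h at 37 C. Beta-lactamase reporter activity was read after 2 h at room temperature with LiveBLAzer B/G FRET substrate (ex 405, em 460/530 nm).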
# [5] = qHTS assay to identify small molecule antagonists of the TGF-beta/Smad signaling pathway - cell viability counter screen (AID 1346824); also: nearly all actives have a fitted effect of over 50% in size
# Summary of the method: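 SBE-bla HEK 293T cells, incubated overnight, then compound plus 0.25 ng/mL TGF-beta1 (stock added) for 5 hr at 37 C. Viability was read in the same wells by CellTiter-Glo luminescence after 30 min at room temperature.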
# [6] = qHTS assay to identify small molecule agonists of the TGF-beta/Smad signaling pathway (AID 1346859; active = well fitted activation curve with a large enough effect in the signal ratio in the repeat runs, not every such curve was filed as active; inconclusive = weak or mixed curves; the % refers to the signal ratio); conditions: SBE-bla HEK293T, TGF-beta/Smad beta-lactamase reporter, 5 h; activation: at 76.8 µM (top of the series)
# Summary of the method: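 Screening used HEK 293T SBE-bla cells at 4,000/well. Test agents: 5 hr, 37 C. Detection: FRET substrate, 2 hr RT, then excitation 405 nm with emissions at 460 and 530 nm.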
# [7] = Human pregnane X receptor (PXR) small molecule agonists, qHTS cell viability counter screen (AID 1346977); also: nearly all actives have a fitted effect of over 50% in size; as to activity change, negative = cytotoxicity: % is scaled to controls: 0 for no effect and ±100 for the full control effect
# Summary of the method: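 In each well, the PXR reporter HepG2 line was checked for viability: CellTiter-Fluor reagent added 23hr post-dosing, fluorescence read after 1hr incubation at 37C.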
# [8] = qHTS assay to identify small molecule agonists of the TGF-beta/Smad signaling pathway - cell viability counter screen (AID 1346829); also: nearly all actives have a fitted effect of over 45% in size
# Summary of the method: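 Same-well cytotoxicity: CellTiter-Glo added after the 2 hr room-temperature beta-lactamase substrate step, luminescence measured 30 min later; cells had 5 hr of compound at 37 C.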
# [9] = activity change, negative = inhibition: at 92.4 µM (top of the series) unless noted
# Potency is read from the fitted curve at half-maximal effect; tags tell the direction and shape of the fitted curve or compound fluorescence and quenching.
# Chain of UniProt P06401 (P06401 whole entry, looked up): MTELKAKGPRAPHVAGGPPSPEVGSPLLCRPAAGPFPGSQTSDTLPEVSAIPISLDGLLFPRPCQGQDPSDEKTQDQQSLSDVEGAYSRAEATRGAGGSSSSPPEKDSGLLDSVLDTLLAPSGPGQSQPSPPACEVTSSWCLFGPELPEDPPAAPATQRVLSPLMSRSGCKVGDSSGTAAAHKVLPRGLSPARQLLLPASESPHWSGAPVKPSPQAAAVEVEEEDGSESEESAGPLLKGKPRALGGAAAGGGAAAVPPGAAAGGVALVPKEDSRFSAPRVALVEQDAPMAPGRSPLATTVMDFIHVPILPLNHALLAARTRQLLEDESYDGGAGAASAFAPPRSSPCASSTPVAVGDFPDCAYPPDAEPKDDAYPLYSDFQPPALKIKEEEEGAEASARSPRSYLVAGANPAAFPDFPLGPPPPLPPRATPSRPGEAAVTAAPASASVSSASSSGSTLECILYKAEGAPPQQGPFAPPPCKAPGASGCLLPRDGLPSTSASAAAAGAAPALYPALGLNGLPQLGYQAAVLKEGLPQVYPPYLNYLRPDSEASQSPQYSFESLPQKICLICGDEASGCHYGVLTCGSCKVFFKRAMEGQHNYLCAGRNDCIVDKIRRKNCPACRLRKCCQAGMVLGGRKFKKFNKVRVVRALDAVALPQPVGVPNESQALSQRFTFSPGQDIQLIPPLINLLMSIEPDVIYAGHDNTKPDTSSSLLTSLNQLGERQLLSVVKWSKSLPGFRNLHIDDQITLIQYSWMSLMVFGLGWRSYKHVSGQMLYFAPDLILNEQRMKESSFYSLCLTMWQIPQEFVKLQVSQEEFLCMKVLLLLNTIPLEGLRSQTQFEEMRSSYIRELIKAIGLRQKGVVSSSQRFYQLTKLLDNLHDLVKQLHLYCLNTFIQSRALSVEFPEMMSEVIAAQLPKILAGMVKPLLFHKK
structure (smiles),measurement,setting,value
CC(C)(C)NC(=O)[C@H]1CC[C@H]2[C@@H]3CC[C@H]4NC(=O)C=C[C@]4(C)[C@H]3CC[C@]12C,"activity change, negative = inhibition",[1]; [9],inconclusive: -27.5% [at 42.5 µM]
same,Potency,[2],inconclusive: 76.1 µM
same,Potency,[3],"inconclusive: 60.4 µM [rising, partial curve]"
same,Potency,[4],"inconclusive: 48.5 µM [rising, partial curve, poor fit]"
COc1cc(-c2nc(NC(=O)c3cc4cc(C)cc(C)c4n3CC(=O)O)sc2CCC2CCCCC2)c(OC)cc1Cl,Potency,[1]; [9],active: 12.5 µM
same,Potency,[2],active: 14.1 µM
same,Potency,[3],active: 11.2 µM
same,Potency,[5],"inconclusive: 44.9 µM [cytotoxic, single point]"
same,Potency,[6],"inconclusive: 35.7 µM [rising, partial curve]"
same,Potency,[4],"inconclusive: 40 µM [rising, partial curve]"
same,Potency,[7],active: 31.5 µM
[O-][n+]1ccccc1SSc1cccc[n+]1[O-],Potency,[1]; [9],"inconclusive: 0.366 µM [falling, full curve]"
same,Potency,[2],active: 0.116 µM
same,Potency,[3],active: 0.116 µM
same,"activity, negative = inhibition",[4],inconclusive: -6.42% [at 15.8 µM]
CC(=O)O[C@]1(C(C)=O)CC[C@H]2[C@@H]3C[C@H](C)C4=CC(=O)CC[C@]4(C)[C@H]3CC[C@@]21C,"activity change, negative = inhibition",[1]; [9],inconclusive: -51.5%
same,"activity change, negative = inhibition",[1]; at 42.5 µM (top of the series),inactive: -20%
same,Potency,[4],inconclusive: 6.53 µM [fluorescent]
same,"activity, negative = inhibition",[4],inconclusive: -2.75% [at 35.3 µM]
CC(C)OC(=O)C(C)(C)Oc1ccc(C(=O)c2ccc(Cl)cc2)cc1,Potency,[1]; [9],active: 17.2 µM and active: 21.1 µM
same,Potency,[2],"inconclusive: 17.2 µM [rising, partial curve]"
CCCCCCCCCCn1cc[n+](CCCCCCCCCC)c1C,Potency,[1]; [9],"inconclusive: 77 µM [falling, single point]"
same,Potency,[2],active: 21.7 µM
same,Potency,[3],active: 30.7 µM
same,Potency,[5],active: 24.6 µM
same,Potency,[8],active: 21.9 µM
same,Potency,[4],"inconclusive: 6.93 µM [rising, partial curve]"
CC(C)c1cccc(C(C)C)c1N1C(=O)c2ccc(O)cc2C1=O,Potency,[1]; [9],active: 6.11 µM
same,Potency,[2],"inconclusive: 77 µM [cytotoxic, single point]"
same,Potency,[3],"inconclusive: 9.69 µM [rising, full curve]"
same,Potency,[6],"inconclusive: 43.6 µM [rising, partial curve]"
same,"activity, negative = inhibition",[4],inconclusive: -26.2%
Cc1cc(Br)ccc1NC(=O)CCl,Potency,[1]; [9],inconclusive: 27.3 µM
same,Potency,[2],active: 15.4 µM
same,Potency,[3],active: 27.3 µM
same,Potency,[8],"inconclusive: 61.6 µM [cytotoxic, single point]"
same,Potency,[6],"inconclusive: 21.9 µM [rising, partial curve]"
same,Potency,[4],"inconclusive: 13.8 µM [fluorescent, partial curve]"
O=C(N[C@H](CO)[C@H](O)c1ccc([N+](=O)[O-])cc1)C(Cl)Cl,"activity change, negative = inhibition",[1]; [9],inconclusive: -10.7%
same,Potency,[2],"inconclusive: 4.86 µM [rising, full curve, poor fit]"
same,Potency,[3],"inconclusive: 1.37 µM [cytotoxic, single point]"
C=CCc1cc(S(=O)(=O)c2ccc(O)c(CC=C)c2)ccc1O,Potency,[1]; [9],active: 27.3 µM
same,Potency,[2],inconclusive: 68.6 µM [cytotoxic]
same,Potency,[3],"inconclusive: 19.3 µM [rising, partial curve]"
same,"activity, negative = inhibition",[4],inconclusive: 1.96%
same,Potency,[7],"inconclusive: 54.5 µM [cytotoxic, partial curve]"
S=C(SSSSSSC(=S)N1CCCCC1)N1CCCCC1,Potency,[1]; [9],active: 13.4 µM
same,Potency,[2],"inconclusive: 10.7 µM [cytotoxic, partial curve]"
same,Potency,[3],"inconclusive: 3.38 µM [cytotoxic, single point]"
same,"activity, negative = inhibition",[4],inconclusive: 17.4% [at 15.8 µM]
same,"activity change, negative = cytotoxicity",[7],inactive: 0.702% [at 19 µM]
NC(=O)n1c(O)c(C(=O)c2cccs2)c2cc(Cl)ccc21,Potency,[1]; [9],"inconclusive: 2.98 µM [falling, full curve]"
same,Potency,[2],"inconclusive: 13.3 µM [rising, full curve]"
same,Potency,[3],"inconclusive: 18.8 µM [rising, partial curve]"
same,"activity, negative = inhibition",[4],inconclusive: -16% [at 35.3 µM]
same,Potency,[7],"inconclusive: 23.7 µM [cytotoxic, partial curve]"
c1ccc2occc2c1,"activity change, negative = inhibition",[1]; [9],inconclusive: 10.3% [phenotype inactive]
same,Potency,[2],"inconclusive: 2.73 µM [cytotoxic, full curve, poor fit]"
same,Potency,[3],inconclusive: 0.611 µM [cytotoxic]
